Experimental data published in PubChem BioAssay AID1508624 (National Center for Advancing Translational Sciences (NCATS), 2021).
The campaign covered roughly 48,000 compounds. About 120 (0.25%) were called active. Not shown: some 4% with an inconclusive outcome. Calls come from the whole dose curve; as a rule, active = well fitted activation curve with a large enough effect; inconclusive = small, poorly fitted or top-dose-only effect, or another doubt; inactive = no such curve, though single readings can be large or run the other way. Some of the results follow.

Assay: Primary qHTS for Identification of Small Molecule Activators of Huntingtin-Antisense Promoter Activity; note: nearly all actives have a fitted effect of over 55% in size
Conditions: HEK293 HTT-AS promoter firefly luciferase reporter (activity 0% = vehicle and -100% = no light), 24 h; series mostly up to 57.5 µM; activity change, positive = activation: at the top concentration
How it was run: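 HEK293 Fluc reporter, 2,500 cells/well, 24 h pre-culture; cpds up to 57.5 uM final, 24 h 37 degrees C; Dual-Glo, 10 min RT; normalized vehicle = 0%, zero RLU = -100%.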

Activity change, positive = activation, inactive:
CCOC(=O)c1c(C)oc2nc(C)nc(N(C)Cc3ccccc3)c12 -38.2%
O=C(CSc1ncc(-c2ccc(Cl)cc2)[nH]1)Nc1ccccc1F -12.2%
CCOc1ccc(C(=O)c2cn(Cc3cccc(OC)c3)c3cc4c(cc3c2=O)OCO4)cc1 -20.8%
O=C(C1CCCN(S(=O)(=O)c2cccc3nonc23)C1)N1CCN(c2cccc(C(F)(F)F)c2)CC1 (stereo not drawn) -36%
COc1ccc(S(=O)(=O)NCc2ccc3c(c2)CCN3C(C)=O)cc1OC -25.2%
Nc1ncnc2c1ncn2[C@@H]1O[C@H](COP(=O)(O)O)[C@@H](O)[C@H]1O -1%
Cc1ccc(NC(=O)CCS(=O)(=O)c2ccc3nc(C)sc3c2)c(C)c1 -9.7%
CCOc1ccc(CN2C(=O)c3ccccc3Sc3ccc(C(=O)NCCCN4CCOCC4)cc32)cc1 -31.9%
CCOc1ccc(S(=O)(=O)N(CC(=O)NCCc2ccc(OC)cc2)c2ccccc2)cc1 -20.2%
COc1ccccc1N1CCN(c2c(CN3CCCC3)c(=O)oc3ccccc23)CC1 -8.34%
CCOc1ccc(C(=O)Nc2ccc(NC(=O)c3ccccc3)cc2)cc1Br 2.58%
COC(=O)c1ccc([C@H]2Nc3ccc(S(=O)(=O)Nc4ccc(F)cc4)cc3[C@H]3C=CC[C@H]32)cc1 -14.5%
Cc1ccc(S(=O)(=O)N2CCCc3cc(NS(=O)(=O)c4ccccc4)ccc32)cc1 -11.3%
Cc1ccc(OCC(=O)N(Cc2nc(-c3ccccc3)no2)C(C)C)cc1C -23.2%
CN(C)c1ncc(C(=O)NCc2ccccc2Cl)cn1 -0.941%
CCCCCNC(=O)C1CCC(Cn2c(=O)c3sccc3n(CC(=O)NCc3cccc(OC)c3OC)c2=O)CC1 (stereo not drawn) -20.2%
CCCCC(=O)Nc1nnc(S(=O)(=O)N(C)Cc2ccccc2)s1 -10.1%
CCSc1nnc2c(n1)OC(c1ccc(OC)c(OC)c1)N(C(C)=O)c1ccccc1-2 (stereo not drawn) 0%
CN(C)c1ccc(CNC(=O)C2CCN(Cc3cc4ccccc4n3Cc3ccccc3)CC2)cc1 -23.6%
Cc1cccc(N(C)S(=O)(=O)c2cc3[nH]c(=O)c(=O)[nH]c3cc2C)c1 -1.83%
NS(=O)(=O)c1cc2c(cc1Cl)NCNS2(=O)=O
Cc1ccc(-c2noc(CSc3nnc(C)n3-c3ccc(C)c(C)c3)n2)cc1 -33.7%
COc1ccc(Cl)cc1NC(=O)CSc1ccc2nnc(CCNS(=O)(=O)c3ccccc3)n2n1 -16.9%
C[N+]1(C)CCC(=C(c2ccccc2)c2ccccc2)CC1 -9.58%
Cc1ccc2[nH]c(=O)c3cc(C(=O)NC4CCC(C)CC4)sc3c2c1 (stereo not drawn) -11%
CCOc1ccc(NC(=O)c2cc(S(=O)(=O)N3CCN(c4ccccc4F)CC3)ccc2F)cc1 -21.6%
CCCCN(C)C(=O)CSc1nc2ccccc2nc1Cc1ccc(C)cc1 -5.64%
O=c1cc(-c2ccccc2)n2c(SCc3ccccc3Cl)nnc2[nH]1 -3.26%
COc1ccc(-n2c(=O)c3c4c(sc3n(C)c2=O)CN(C(C)=O)CC4)cc1 -3.54%
COc1ccccc1CNC(=O)C(=O)NCC(c1cccs1)S(=O)(=O)c1cccs1 (stereo not drawn) -20.3%
Cc1ccc2oc(C(=O)N(Cc3sccc3C)C3CCS(=O)(=O)C3)c(C)c2c1 (stereo not drawn) -37.3%
COc1cccc(CNC(=O)c2nc(Cn3nc(C)c(Br)c3C)no2)c1 -2.1%
CCOc1ccc(Nc2c(S(=O)(=O)c3ccc(C)cc3)cnc3ccc(F)cc23)cc1 -44.5%
CON=C(C(=O)N[C@@H]1C(=O)N2C(C(=O)O)=C(Cn3ccc(=N)n3CCO)CS[C@H]12)c1csc(N)n1 -14.5%
COc1cccc2c1cc1c(=O)n(CC(=O)NCc3ccco3)nc(C)n12 -19.2%
Cc1c(Cl)cccc1NC(=O)CSc1nc(=O)n(Cc2ccco2)c2c1CCC2 -46.2%
Cc1ccc(CCNC(=O)CN(c2ccc(C)cc2)S(=O)(=O)N(C)C)cc1 -16.5%
Cn1nnnc1SCCCNCc1cccc(OCc2ccccc2)c1 -7.28%
O=C(NCc1ccc(Cl)cc1)NC1COc2ccccc2C1 (stereo not drawn) -13%
CC1CCN(S(=O)(=O)c2ccc3c(c2)N(CC(=O)NCC(C)c2ccccc2)C(=O)CO3)CC1 (stereo not drawn) -29.6%
Cc1c(C(=O)OCc2ccccc2)[nH]c2c1C(=O)CC(c1ccc(Cl)cc1)C2 (stereo not drawn) -12.4%
O=C(NCc1ccco1)c1ccc(Cn2c(SCc3ccccc3F)nc3cccnc32)cc1 -3.4%
O=C1c2cccc(O)c2C(=O)c2c(O)cc(CO)cc21 -16.2%
CN(C)CCC=C1c2ccccc2C=Cc2ccccc21
O=C(NC1CCCCC1)c1ccc2c(c1)N(Cc1ccccc1Cl)C(=O)c1ccccc1S2 -15.8%
CN(C)CCc1c[nH]c2ccc(C[C@H]3COC(=O)N3)cc12
CCOc1ccccc1NC(=O)C1CCCN1S(=O)(=O)c1ccc2nc(-c3ccccc3)[nH]c2c1 (stereo not drawn) -39.5%
COc1ccc(CCNC(=O)Cn2cc(S(=O)(=O)Cc3ccc(F)cc3)c3ccccc32)cc1OC -27.2%
CCOc1ccc(C(=O)c2oc3ccccc3c2NC(=O)c2cc(-c3ccc(C)cc3)on2)cc1 -1.86%
Cc1ccc(-c2cc(C(F)(F)F)n3ncc(-c4ccccc4)c3n2)cc1 -7.44%
CCOc1ccc(S(=O)(=O)Nc2ccc3oc4c(c3c2)CC(C)CC4)cc1 (stereo not drawn) -7.8%
COc1ccccc1CNC(=O)COCc1cc(-c2ccc3c(c2)OCO3)on1 -12.1%
COc1ccc(/C=C(\C#N)c2nc3ccccc3c(=O)[nH]2)cc1OC -19.2%
CC(C)CN(CC(C)C)CC(O)Cn1cc(/C=C/C(=O)c2ccccc2)c2ccccc21 (stereo not drawn) -27.3%
O=C(COc1ccc(F)cc1)OCc1cc(=O)n2nc(-c3cccs3)sc2n1 7.02%
COc1cccc(CNS(=O)(=O)c2c(C(=O)N3CCC(C)CC3)c(C)n(C)c2C)c1 -7.12%
CCc1ccc(NC(=O)C2=CC(c3cccs3)=NS(=O)(=O)N2C)cc1 -14.9%
COc1cc(NS(=O)(=O)c2c(C)nc3sc(C)c(C)n3c2=O)cc(OC)c1 -14.8%
COc1ccc(C)c2sc(NC(=O)c3ccc(S(=O)(=O)N4CCCC4)cc3)nc12 -8.18%
CCOc1ccccc1CNC(=O)Cn1nc(N2CCN(c3ccccc3)CC2)ccc1=O -18.2%
NC(N)=N/N=C/c1c(Cl)cccc1Cl -14.2%
COc1ccc(C(=O)NCc2ccc3c(c2)CCN3C(=O)c2ccc(F)cc2)cc1 -24%
COc1cccc(Cc2nc3ccccc3nc2SCC(=O)Nc2cc(OC)ccc2OC)c1 -23.7%
CCOc1ccccc1CNCCSc1nnnn1C -11.1%
CCOCCn1ccc2c(OCC(=O)Nc3cccc(F)c3)cccc2c1=O -12.9%
CCOc1cc(-c2ccc(OC(=O)c3ccccc3)c(OC)c2)cc(=O)c2c(C)oc(C)c12 -15.1%
Cc1ccc(C2c3c(oc4ccccc4c3=O)C(=O)N2c2nnc(C)s2)cc1 (stereo not drawn) -3.85%
CCN(CCCNC(=O)CN1N=C(c2ccccc2)CCC1=O)c1ccccc1 -22%
O=c1c2sc3ccccc3c2n(Cc2ccccc2)c(=O)n1CCc1ccccc1 0.435%
COc1ccc(C)cc1Nc1ncnc2c1c(-c1ccccc1)cn2-c1ccc(C)cc1 -9.94%
O=c1[nH]c(=O)n([C@H]2C[C@H](O)[C@@H](CO)O2)cc1F -18%
COc1ccc(S(=O)(=O)N2CCC(C(=O)Nc3cc(C(F)(F)F)ccc3Cl)CC2)cc1 -19.8%
COc1ccc(OC)c2sc(N3CCN(C(=O)C4COc5ccccc5O4)CC3)nc12 (stereo not drawn) -2.05%
O=C(Nc1cccc(F)c1)c1oc2ccccc2c1NC(=O)C12CC3CC(CC(C3)C1)C2 -8.7%
CCCCCn1cc2c(c1-c1ccccc1Br)c(=O)n(C)c(=O)n2C -33.6%
CC(C)c1ccc(NC(=O)CCS(=O)(=O)c2ccc3c(c2)CC(=O)N3C)cc1 4.17%
O=S(=O)(c1ccccc1)c1nnn2c1nc(NCc1ccccc1)c1cc(Cl)ccc12 0%
Cc1nc2nc(C)c(CCC(=O)NCc3ccccc3)c(C)n2n1 -10%
Cc1ccc2occ(CC(=O)Nc3ccc(S(=O)(=O)N4CCC(C)CC4)cc3)c2c1 -23.9%
COc1ccccc1CNC(=O)CSc1nnc(C)c2c(C)n(-c3ccccc3)nc12 -45.7%
O=C(Nc1ccc(F)c(Cl)c1)N1CCC(CN2CCOCC2)CC1 -5.74%
Cc1nc2sccn2c(=O)c1S(=O)(=O)Nc1cc(C(F)(F)F)ccc1Cl -24%
Cc1ccc(CCNC(=O)c2ccc3c(c2)nc2n3CCOC2)cc1 2.48%
CCOCCCn1c(SCC(=O)Nc2ccccc2Cl)nc2c(oc3ccccc32)c1=O 5.52%
Cc1ccccc1OCCCCn1nnc2sc3c(c2c1=O)CCC(C)C3 (stereo not drawn) -1.14%
COCCNC(=O)c1ccc(-c2nc(CS(=O)(=O)c3ccccc3)c(C)o2)cc1 22%
CN1C(=O)C2(SCC(=O)N2c2ccc(Cl)cc2)c2ccccc21 (stereo not drawn) -1.98%
CCOc1ccc(NC(=O)CSc2nc3ccsc3c(=O)n2CCCCCC(=O)O)cc1 -5.49%
CC(=O)N1CCCc2cc(S(=O)(=O)N3CCCC(C(=O)NCc4ccc(C)cc4)C3)ccc21 (stereo not drawn) -40.4%
CCOc1ccc(NCc2nc3ccccc3n2CCOc2ccc(C)cc2)cc1 -90.8%
CNNCc1ccc(C(=O)NC(C)C)cc1
CCc1ccc(-n2nc3ccc(NC(=O)COc4ccc(OC)cc4)cc3n2)cc1 -7.68%
COc1cccc(Cn2c(CNS(=O)(=O)c3ccc(Cl)s3)nc3cccnc32)c1 -27.9%
CCc1nn2c(=O)c(S(=O)(=O)Nc3ccc(C(C)C)cc3)c(C)nc2s1 -26.5%
O=C(CSc1nc2c(c(=O)[nH]1)CN(Cc1ccc3c(c1)OCO3)CC2)Nc1ccccc1Cl 0%
Cc1ccc(S(=O)(=O)C(CNC(=O)COc2ccccc2)c2ccco2)cc1 (stereo not drawn) -14.1%
CCCOc1ccc(-c2cc(C(F)(F)F)c(C#N)c(SCCC(=O)O)n2)cc1 0%
CCCN(CCC)C(=O)Cn1c(=O)n(CCCCCC(=O)NCc2ccccc2Cl)c(=O)c2sccc21 -8.25%
